For experiment [1], the system named is newborn mice. In words: Protection from neurodegeneration caused by ibotenate in newborn mice. Type of experiment: in vivo, mouse. The protocol:
Ibotenate, an agonist of N-methyl-D-aspartate (NMDA) receptors, when administered by the intracerebral route to the newborn mouse, brings about lesions of excitotoxic origin in the neocortex and the underlying white matter.
The ibotenate injection is performed in newborn mice aged 5 days (P5). The compounds of the invention are administered by the i.p. route at a dose of 20 mg/kg [either simultaneously] (P5), [or 8, 24 or 48 hours after induction of the lesions]. […] Cell markers were applied to the brain slices of animals sacrificed at various times after administration of ibotenate and the compound of the invention: (1) cleaved caspase-3, an apoptosis marker; (2) isolectin, a microglial activation marker; (3) glial fibrillary acidic protein (GFAP), a marker of astrogliosis.

Experiment [2] relates to Mouse embryonic stem (ES) cells. The experiment can be described thus: Effect on cell differentiation of stem cells (markers by Q-RT-PCR). The format is cell-based. As to conditions: 1 μM, after 8 days of exposure. The text has this: Mouse embryonic stem (ES) cells are isolated from the internal cell mass of the blastocyst. Depending on the culture conditions, they can multiply indefinitely or can differentiate to give rise to various types of cell. The ES cells differentiate into neural precursors which, in turn, develop into a heterogeneous population of cells composed of astrocytes, oligodendrocytes and different types of neurons (GABAergic, glutamatergic, dopaminergic, cholinergic, glycinergic etc.) (Okabe S., Forsberg-Nilsson K., Spiro A. C. et al., Mechanisms of Development, (1996), 59, 89-102; Brüstle O., Spiro A. C., Karram K. et al., Proc Natl Acad Sci USA, (1997), 94, 14809-14814; Guan K., Chang, Rolletschek A. et al., Cell Tissu Res, (2001), 305, 171-176). Adding certain differentiation inducers such as retinoic acid (RA) to the culture medium facilitates orientation of the ES cells towards the neuronal route (Strübing C., Ahnert-Hilger G., Shan J. et al., Mechanisms of Development, (1995), 53, 275-287). The obtaining of a homogeneous population of neurons constitutes a key step in the objective of treating neurodegenerative diseases whether on the basis of transplanting ES or for differentiation of the ES of the patient.
The experiment is carried out in the following manner: 12 hours after dividing the confluent ES cells for subculturing, they are treated with compounds of the invention at concentrations of 0.1; 1 and 10 μM and with RA (1 μM). The treatment is repeated every 2 days and the cell extracts are made 3 hours after each treatment, on the 1st day (3 hours), the 4th day (D4) and 8th day (D8) for quantification of the markers by Q-RT-PCR -(quantitative reverse transcription polymerase chain reaction).
These markers are: nestin, neural precursor marker; synaptophysin, neuronal differentiation and synaptic plasticity marker; TH, marker of differentiation into neurons of dopaminergic or noradrenergic type; glutamic acid decarboxylase (GAD), marker of differentiation of ES into GABAergic neurons; GFAP, specific astrocyte marker.

Setting [3] is: 20 mg/kg i.p., sacrifice at 24 h.
The mark [4] stands for this setting: 20 mg/kg i.p., simultaneous injection at 0 h, sacrifice at 120 h.
Setting [5] is: injected 24 hours after ibotenate, when the lesions have already developed.

Consider `CN1CCC=C(C(=O)Nn2ccc3ccccc32)C1` [Example 2, N-(1H-indol-1-yl)-1-methyl-1,2,5,6-tetrahydropyridine-3-carboxamide], for which, in experiment [1] (setting [3]), the “Reduction in the intensity of markers relative to the controls, Cleaved caspase-3 (apoptosis)” value worked out at 51% and the “Reduction in the intensity of markers relative to the controls, Isolectin (microglial activation)” value was determined as 50%. The “Reduction in the intensity of markers relative to the controls, GFAP (astrogliosis)” value in experiment [1] (20 mg/kg i.p., sacrifice at 120 h) amounted to 46%. For the same compound, in experiment [1] (setting [4]), the “Reduction in the size of lesions relative to the controls, cortex” value is given as 63% and the “Reduction in the size of lesions relative to the controls, white matter” value is reported as 38%. Further, in experiment [1] (setting [5]), the “reparatory effect: reduction in the size of the lesions, cortex” value is reported as 27% and the “reparatory effect: reduction in the size of the lesions, white matter” value amounted to 37%. For the same compound, in experiment [2], the “increase in GFAP (specific astrocyte marker)” value is recorded as 67% and the “increase in TH (marker of differentiation into dopaminergic or noradrenergic neurons)” value was found to be 253±62%. Also, in experiment [2] (p<0.05), the “increase in synaptophysin (neuronal differentiation and synaptic plasticity marker)” value was determined as 229±37%.

These data come from patent US20090298813A1, “USE OF NEUROPROTECTIVE COMPOUNDS IN OBTAINING MEDICAMENTS INTENDED FOR THE TREATMENT OF NEURODEGENERATING DISEASES” (LES LABORATOIRES SERVIER, priority 2007, published 2009).
